Screen size: about 46,000 compounds; about 60 (0.1%) were called active. Roughly 3% stayed inconclusive and do not appear here. The call rests on the fitted dose curve; in most records, active means well fitted inhibition curve with a large enough effect; inconclusive means small, poorly fitted or top-dose-only effect; inactive means no such curve, though single readings can be large or run the other way. This is one part of the list.
assay: Primary qHTS assay for Inhibitors of ovarian cancer metastasis using an organotypic tumor microenvironment (TME) model.; further: nearly all actives have a fitted effect of over 65% in size;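 on activity change, negative = inhibition: plate controls were DMSO wells for no effect and tomatine positive control wells for full effect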; settings: SKOV3ip1-GFP adhesion/invasion on 3D omental model, fluorescence; series mostly up to 45.8 µM; activity change, negative = inhibition: at the top concentration
In short: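 Adhesion/invasion was scored as fixed GFP-labeled SKOV3ip1 cell counts (488/509 nm), normalized to DMSO and tomatine controls. Cancer cells in serum-free medium, with four compound doses (0.36-46 umol/L), sat 2 hr at RT then 16 hr at 37 C on a 48 hr fibroblast/mesothelial/ECM culture.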

Activity change, negative = inhibition, inactive:
COc1ccc(-n2nc(C(=O)NCc3ccc(F)cc3)c3c4ccccc4n(C)c3c2=O)cc1 5.89%
CCN(CC)C(=O)c1sc2c(c1C)c(=O)n(CCc1ccccc1)c(=O)n2Cc1cccc(Cl)c1 16.1%
COc1ccccc1CNc1ccc(-c2nc(-c3cccc(C)c3)no2)cc1[N+](=O)[O-] -8.36%
CCCCOc1ccc(CN2C(=O)C(=O)c3cc(C)ccc32)cc1OC 16.1%
COC(=O)c1cc(NC(=O)Cn2nc(-c3ccccc3)c3c(c2=O)CCCC3)cc(C(=O)OC)c1 5.74%
COc1cc(C)ccc1OCCSc1nc2ccc(NC(=O)c3ccccc3F)cc2s1 -5.21%
CCc1ccc(-c2cc(C)no2)cc1S(=O)(=O)NCc1ccc(OC)cc1 -29%
Fc1ccc(NCc2ccccc2-c2nnc(-c3ccccc3Cl)o2)cc1Cl -2.2%
CCN(CC)C(=O)Cn1c(=O)n(CCCCCC(=O)NCc2ccc(C)cc2)c(=O)c2sccc21 8.76%
CC(=O)N1CCc2c(sc3c2c(=O)n(-c2cc(Cl)ccc2C)c(=O)n3C)C1 9.24%
CCOc1ccc(-n2c(=O)c3c(C)c(C)sc3n(Cc3ccc(C(C)(C)C)cc3)c2=O)cc1 2.16%
O=C(Nc1ccccc1Br)N[C@@H]1CCN(c2ccc(C(F)(F)F)cn2)C1 0.598%
Cc1sc2ncn(CC(=O)N3CCN(c4cccc(Cl)c4)CC3)c(=O)c2c1S(=O)(=O)N1CCC(C)CC1 -3.9%
Cc1cccc2cc(-c3nc(-c4cccs4)no3)c(=O)oc12 -5.03%
CCn1cc(S(=O)(=O)c2cc(C)cc(C)c2)c(=O)c2cc(F)c(N3CCN(c4ccccc4)CC3)cc21 12.1%
COc1cccc(C(=O)N2CCc3cc(OC)c(OC)cc3C2COc2ccc3c(C)cc(=O)oc3c2)c1 (configuration not stated) 14.5%
COc1ccc(Cl)cc1NC(=O)COc1cccc2c(=O)n(C)ccc12 2.87%
CCCCNC(=O)Cn1nc(N2CCN(c3ccccc3OC)CC2)ccc1=O -10.6%
COc1ccc(OCC(=O)N2CCN(C(=O)c3cccc(OC)c3OC)CC2)cc1 -18.5%
Cc1cccc(C=NNc2cc(N3CCOCC3)nc(OCCc3ccccn3)n2)c1 -31%
CCCCN(C(=O)CCn1c(=O)oc2ccccc21)c1ccccc1 -2.03%
O=C(NCC(c1cccnc1)N1CCc2ccccc21)c1cccc(F)c1 (configuration not stated) -7.57%
CC(C)(C)OC(=O)CN(Cc1ccc(Cl)cc1)Cc1ccc([N+](=O)[O-])s1 2.71%
O=C(NCC(c1ccco1)S(=O)(=O)c1cccs1)c1c(F)cccc1F (configuration not stated) 1.17%
CCN(CC)C(=O)c1sc2c(c1C)c(=O)n(Cc1ccccc1)c(=O)n2Cc1c(C)cc(C)cc1C 1.64%
CCOc1ccc(S(=O)(=O)Nc2ccc3c(c2)CCCN3S(=O)(=O)c2ccc(C)cc2)cc1 -21.5%
Cc1ccc(CNC(=O)c2cc(NS(=O)(=O)c3ccc(C)cc3)ccn2)cc1 21.6%
Cc1ccc(NS(=O)(=O)c2ccc3[nH]c4c(c3c2)CCCCCC4)cc1C -25.8%
CCCOc1ccc(C(=O)Nc2ccc(NC(=O)c3ccc(Br)cc3)cc2)cc1 0.173%
Cc1cccc(Nc2nnc(-c3ccc(C)c(S(=O)(=O)N4CCOCC4)c3)c3ccccc23)c1 -4.03%
COc1ccc(CCNCc2c(C(=O)O)c(C)n(Cc3cccc(C)c3)c2C)cc1OC -2.02%
COC(=O)c1sc2cccc(F)c2c1S(=O)(=O)NCc1ccccc1Cl -7.89%
COc1ccc(NC(=O)CN(C)S(=O)(=O)c2ccc3nc(C)sc3c2)cc1Cl -10.7%
Cn1c(C(=O)NCc2ccccc2F)cc2cc(S(=O)(=O)N3CCCCC3)ccc21 -5.06%
Cc1cc(C)cc(NC(=O)C2CCN(c3nnc(-n4c(C)ccc4C)s3)CC2)c1 -3.47%
CC(=O)c1ccc(NS(=O)(=O)c2ccc3[nH]c(=O)[nH]c3c2)cc1 12.4%
COc1ccc(-c2noc(COc3ccc(C)cc3C)n2)cc1OC 15.1%
CCc1cccc(NC(=O)CN(C)S(=O)(=O)c2ccc3c(c2)n(C)c(=O)c(=O)n3C)c1 -5.52%
COc1ccc(Nc2cc(C)c3cc(NC(=O)COc4cccc(C)c4)ccc3n2)cc1 -3.89%
Cc1cccc(N2CCN(C(=O)CCNS(=O)(=O)c3ccc4c(c3)CCN4C(=O)C3CC3)CC2)c1C 13.3%
COc1cccc(CNC(=O)C2=C(C)C(=O)OC23CCCCCC3)c1 1.33%
O=C(CN1C(=O)c2ccccc2Sc2ncccc21)Nc1cccc(C(F)(F)F)c1 -6.58%
COc1ccc(Cl)cc1NC(=O)c1noc2c1CCc1ccccc1-2 1.41%
Cc1nn2c(C)c(C(=O)NCc3cccc(Br)c3)cnc2c1-c1ccccc1 -4.85%
CO[C@H]1O[C@@H]2O[C@@]3(C)CC[C@@H]4[C@@H](C)CC[C@@H]([C@H]1C)[C@@]24OO3 -30.6%
CCOc1ccc(S(=O)(=O)N(CC(=O)Nc2ccc(OC)c(Cl)c2)c2ccccc2)cc1 3.18%
CCc1cc(=O)oc2c(C)c(OCC(=O)Nc3ccc(S(=O)(=O)N(CC)CC)cc3)ccc12 -6.86%
CCOc1ccc(C(=O)NCC(c2ccc3c(c2)OCO3)N2CCN(C)CC2)cc1 (configuration not stated) 6.06%
CCOc1ccc(NC(=O)N2CCC(n3c(C)nc4cccnc43)CC2)cc1 -2.96%
Cc1ccc(/C=C/c2onc(C)c2S(=O)(=O)N2CCC(C(=O)N3CCN(c4cc(C)ccc4C)CC3)CC2)cc1 3.98%
O=C(NOCC(O)CO)c1cc(Br)c(F)c(F)c1Nc1ccc(I)cc1F (configuration not stated) 6.37%
COc1ccc(Nc2nc3c(S(=O)(=O)c4ccc(C)cc4)nnn3c3ccsc23)cc1Cl -2.96%
COc1cc2c(cc1OC)C(COc1ccccc1OC)N(C(=O)c1ccc(S(=O)(=O)N(C)C)cc1)CC2 (configuration not stated) 3.58%
Cc1ccc(Cl)cc1N1CCN(C(=O)COc2cc(=O)n(C)c3ccccc23)CC1 -0.923%
COc1ccc(Nc2oc(/C=C/c3cc(OC)c(OC)c(OC)c3)nc2C#N)cc1 -0.94%
CC1CCN(S(=O)(=O)c2ccc3c(c2)N(CC(=O)NC(C)(C)C)C(=O)CS3)CC1 0.634%
COc1cccc(CNC(=O)Cn2c(=O)nc(-c3ccccc3F)c3cc(Cl)ccc32)c1 19.5%
COc1ccc(NC(=O)C2CCN(c3ccc(Sc4ccc(C)cc4)nn3)CC2)cc1 -7.38%
COC(=O)c1cc2sc(Cl)cc2n1Cc1nc(-c2ccccc2C)oc1C -2.21%
CCC1CCCCN1CCCNC(=O)c1c(O)nc2cc(C)ccn2c1=O (configuration not stated) 2.11%
CC1CN(C(=O)N2CCC(C(=O)NCc3cccs3)CC2)c2ccccc2O1 (configuration not stated) 5.93%
CCOc1ccc(C(=O)c2oc3ccccc3c2NC(=O)c2cc(=O)c3ccc(C)cc3o2)cc1 -4.75%
COc1ccc(NC(=O)c2ccco2)cc1NC(=O)c1cc(Br)ccc1Cl 0.0491%
CCOC(=O)c1ccccc1NC(=O)CSc1cn(CC(=O)N2CCCCCC2)c2ccccc12 1.69%
Cc1oc2ncnc(N3CCCCC3)c2c1C(=O)N1CCN(c2ccc(Cl)cc2)CC1 -2.49%
COc1ccccc1C(=O)Nc1ccc(S(=O)(=O)Nc2nc(C)cc(C)n2)cc1 -2.73%
CCc1ccc(NC(=O)CCCc2nnc3n(C(C)CC)c(=O)c4sccc4n23)cc1 (configuration not stated) -9.24%
CCCCN(CC)CCNC(=O)c1nn(C)c2c1CS(=O)(=O)c1ccccc1-2 -1.23%

outcome, inactive:
O=C(Cn1c(=O)n(CC2CCCO2)c(=O)c2ccccc21)Nc1ccc(F)cc1F (configuration not stated)
N#C/C(=C/c1ccccc1Cl)c1nc(-c2cc3ccccc3oc2=O)cs1
CCOc1ccc(C(c2c(O)cc(C)n(CCOC)c2=O)N2CCN(c3ccc(F)cc3)CC2)cc1 (configuration not stated)
COC(=O)c1ccc(NC(=O)CN(C)S(=O)(=O)c2ccc3c(c2)CCCC(=O)N3)cc1
COc1cc(NC(=O)c2noc3c2CC(C(C)(C)C)CC3)cc(OC)c1OC (configuration not stated)
COCCn1c(C)cc(O)c(C(c2ccccc2Cl)N2CCN(c3ccccc3)CC2)c1=O (configuration not stated)
CCOc1ccc(-c2cc(CCCC(=O)NCCc3ccc(SC)cc3)no2)cc1
Cc1nn(-c2ccc(N3CCCC3)nn2)c(C)c1CCC(=O)N1CCN(c2ccc(F)cc2)CC1
CCOC(=O)c1ccc(NC(=O)c2c(NCc3ccc(OC)c(OC)c3OC)sc3c2CCC(C)C3)cc1 (configuration not stated)
Cc1cccc(NC(=O)Cn2c(=O)n(CC3CCC(C(=O)NCCc4ccccc4)CC3)c(=O)c3ccccc32)c1C (configuration not stated)
Cc1ccc2[nH]c(C)c(CCNC(=O)c3cc4cc(Br)ccc4oc3=O)c2c1
CCOc1ccccc1CNC(=O)CCCn1c(=O)c2cccn2c2ccc(F)cc21
Cn1c(Oc2cccc(Cl)c2)nc2c1c(=O)n(Cc1ccccc1Cl)c(=O)n2C
CCOC(=O)c1scc(-c2ccc(C)cc2)c1S(=O)(=O)N1CCN(c2ccccc2)CC1
COc1ccc(-n2c(SCC(=O)Nc3ccc4c(c3)OCO4)nc3c([nH]c4ccccc43)c2=O)cc1
COc1ccc(S(=O)(=O)N(CC(=O)Nc2ccc(C)cc2)c2ccc(C)cc2)cc1OC
Cc1cc(C)c(Cn2cnc3nc4c(cc3c2=O)CCCC4)c(C)c1
CCOc1ccccc1NC(=O)CN(c1cc(C)cc(C)c1)S(=O)(=O)c1c(C)nn(C)c1C
Cc1ccc(-c2nnc(Nc3ccc(O)cc3)c3ccccc23)cc1S(=O)(=O)NC(C)(C)CO
CCOc1ccc2nc(Cl)c(C3CC(c4ccccc4)=NN3C(=O)CCC(=O)O)cc2c1 (configuration not stated)
CC(=O)N1CCc2c(sc3c2c(=O)n(Cc2ccccc2)c(=O)n3Cc2ccccc2Cl)C1
CCCCN(CC)C(=O)CSc1nc2ccccc2c(=O)n1Cc1ccco1
COc1ccc(S(=O)(=O)N(CC(=O)NCCc2ccccc2)c2ccc(Cl)cc2)cc1
Cc1ccc(NC(=O)CSc2nnc(NC(=O)NC3CCCCC3)s2)cc1

— PubChem BioAssay AID1963576 (National Center for Advancing Translational Sciences (NCATS), 2024)
